From ChEMBL document CHEMBL4888484, “Replenishing the malaria drug discovery pipeline: Screening and hit evaluation of the MMV Hit Generation Library 1 (HGL1) against asexual blood stage Plasmodium falciparum ,using a nano luciferase reporter read-out” (2022)
In all, about 150,000 compounds went through this assay and about 540 (0.36%) showed an effect of 50% or more. The list shows a part of the results.

System: Plasmodium falciparum
Assay: Primary screen in NF54 nanoGlo assay, in single point, at 2uM, 72h; a lower Z score goes with more inhibition
Format: functional, Erythrocyte
Details: timepoint 72 hour

SMILES | % Inhibition [%] | Z score
CN1CC(=O)N2CCN(S(=O)(=O)c3ccc(F)cc3F)C[C@H]2C1=O | -18 | 1.84
Cc1cc(C)c(NC(=O)Cn2nc3c(N(C)C4CCCCC4)nccn3c2=O)c(C)c1 | -20 | 1.97
COc1cc(C)ccc1OCc1nc(C(=O)N(C)[C@@H](C)c2ccon2)co1 | 8 | -1.22
COc1ccc(C)cc1NC(=O)c1cc(C)cc(O)n1 | -11 | 1.17
Brc1ccc(-c2nc(NCc3ccccc3)cc(-c3ccccc3)n2)cc1 | -8 | 1.03
Cc1c(S(=O)(=O)Nc2ccccc2)c(C)n(C)c1-c1nnc(C2CCC2)o1 | 7 | -0.9
CCOC(=O)N1CCN(Cc2nc(Nc3ccc4c(c3)OCO4)c3cccc(C)c3n2)CC1 | -10 | 1.39
Cc1c(CN2CCO[C@@H](CCN)C2)[nH]c2c(Cl)cccc12 | -12 | 1.18
CN(CC1CCCC1O)C(=O)c1ccc(Cn2cc(Br)cn2)o1 (centres undefined) | -14 | 2.56
O=C(CN1CCOC1=O)N1CCCC[C@H](c2ccc(Cl)cc2)C1 | 11 | -1.39
O=C(CN1CCOCC1C1CCCC1=O)Nc1ccc(Br)cc1 (centres undefined) | -10 | 1.66
CC(C)N(C(=O)CN(C)S(=O)(=O)c1ccc(Br)cc1)C(C)C | -4 | 0.39
CC(C)Nc1ncc(-c2nccn2-c2ccc(F)c(F)c2F)cn1 | -18 | 2.11
O=C(Nc1ccc2oc(-c3cc(F)ccc3Br)nc2c1)N1CCOCC1 | -4 | 0.61
Cc1ncoc1C(=O)N1CCC([C@H]2[C@@H](Oc3ccccc3)CN2C(C)C)CC1 | 10 | -1.12
CC(=O)Nc1nc(CC(=O)N2CCCc3ccccc32)cs1 | -11 | 1.28
Cc1nc(N)ncc1C(=O)N1CCCCC[C@H]1c1cccc(F)c1 | -6 | 0.86
CN(Cc1ccc(N2CCOCC2)cc1)Cn1c(=S)sc2ccccc21 | 4 | -0.49
CCCNC(=O)c1ccc(-c2ccnn2CC)s1 | 4 | -0.39
Cc1nnc(NC(=O)CCCN2C(=O)CCC2=O)s1 | -13 | 2.44
COc1ccc(-c2nn(-c3ccccc3C)c3c2C(C)=CC(=O)[C@H]3CC(=O)Nc2ccccc2C)cc1 | -14 | 1.78
CC(C)(C)c1cnc(CN2CC(O)(c3ccccc3)C2)s1 | -11 | 1.26
O=C(C1CCN(C(=O)[C@H]2C[C@@H]2c2cccc(O)c2)C1)N1CCCC1 (some centres undefined) | -13 | 2.36
CCn1nc(C)c(C(=O)N[C@@H](C)c2cnc(-c3ccncc3)nc2C)c1C | -9 | 1.71
COC(=O)c1ccccc1N1C(=O)[C@@H]2[C@H](C)N[C@@]3(C(=O)Nc4ccccc43)[C@@H]2C1=O | -3 | 0.45
O=C(NCc1ccccc1)NCc1ccc2c(c1)CCN2C(=O)c1ccccc1 | -13 | 2.54

SMILES | % Inhibition [%] | Z score
CNS(=O)(=O)C1CCN(C(=O)C(C)(C)c2ccc(C)cc2)CC1 | -13 | 1.06
CCOC(=O)C1(O)CCN(Cc2ccon2)CC1 | 4 | -0.59
CCn1c(Cn2cnc3ccccc3c2=O)nc2cc(F)ccc21 | -13 | 2.4
Cc1ccc(-c2cc(C(=O)N3CCN(c4ccccc4C)CC3)n(-c3ccc(Cl)c(Cl)c3)n2)o1 | -16 | 1.86
CC(=O)Nc1ccc(CN2Cc3nc[nH]c3C[C@H]2C(=O)NCc2ccc(C(F)(F)F)cc2)cc1 | -2 | 0.36
O=C(c1cccc(Oc2ccccc2)c1)N1CCc2ccccc2C1 | 0 | -0.01
COc1ccc(C(=O)N(Cc2ccc(N(C)C)cc2)C2(C(=O)NCc3ccccc3)CCN(C(C)=O)CC2)cc1 | 7 | -0.95
COc1ccc(C(=O)N2CCC[C@@H]2Cc2ccc3ccccc3c2)nn1 | 12 | -1.66
CCc1nnc(NC(=O)[C@H](C)N(C)Cc2sccc2C)s1 | -3 | 0.4
Cc1oc(-c2ccc3ccccc3c2)nc1CN1CCCC[C@H]1c1nccs1 | -3 | 0.5
Cc1cc(CNC(=O)c2ccc(-c3nnc(C)n3C)cc2)ccc1N(C)C | -13 | 1.91
O=C1NC2(CCCC2)C(=O)N[C@@H]1Cc1ccc(O)cc1 | 2 | -0.29
O=C(C[C@@]1(O)C(=O)N(Cc2ccc3c(c2)OCO3)c2ccccc21)c1ccc(Cl)cc1Cl | -12 | 1.63
O=C(Nc1cccc(-c2nnco2)c1)Nc1cccc2c1CCCC2 | -20 | 3.59
Cc1ccc(C2CC(C)CCN2C(=O)c2ccnc3c2nnn3C)o1 (centres undefined) | -15 | 1.98
Cc1cc(-c2cnn(C)c2)n(C[C@H](C)O)n1 | -14 | 1.43
Cc1c(NC(=O)[C@H]2COCCN2)cnn1CCC(C)C | -8 | 0.98
O=C(NCC1(O)CCCCC1)[C@H]1CCC(=O)N(Cc2ccccn2)C1 | -12 | 1.61
Cc1cccnc1NC(=O)C1CCN(S(=O)(=O)c2ccc3c(c2)C[C@H](C)N3C(=O)C2CCC2)CC1 | -4 | 0.69
CCOC(=O)[C@@]1(C(C)C)CCN(Cc2ncc(C)o2)C1 | -16 | 2.16
CC(C)CCC(=O)NCC(=O)Nc1cc(C(C)C)n[nH]1 | 0 | 0.06
O=C1[C@@H]2C[C@H](F)CN2C(=O)N1c1ccc2occc2c1 | -6 | 0.56
COc1cccc(C(CC(=O)N2CCCC2)c2cnc3n2C(C)CCC3)c1 (centres undefined) | -1 | 0.11
Cn1nnc(CNC(=O)N2Cc3cccnc3N3CCC[C@@H]3C2)n1 | -6 | 1.24
CCn1cc(C(=O)Nc2ccc(OCCN3CC[C@H](C)C3)cc2)cn1 | 5 | -0.92
COc1ccc(Cl)cc1-n1nc(CC(N)=O)nc1[C@H](C)n1ccnc1C | 1 | -0.14
